PubChem BioAssay AID1345083 (National Center for Advancing Translational Sciences (NCATS), 2018)
The whole screen tested about 94,000 compounds, of which about 6,200 (6.6%) were called active. Inconclusive results, whose numbers are uncertain, are shown with a selection of clear calls. Calls come from the whole dose curve; as a rule, active = well fitted inhibition curve with a large enough effect; inconclusive = small, poorly fitted or top-dose-only effect; inactive = flat fitted curve, though single readings scatter. A potency beside an inconclusive call is a rough fit, not a confirmed value.

Test: Cytotoxic Profiling in HEK 293 Cell Line of Diverse Libraries Using Quantitative High-Throughput Screening; note: nearly all actives have a fitted effect of over 60% in size
Conditions: HEK 293 viability, ATP luminescence (CellTiter-Glo), 48-72 h; activity change, negative = cytotoxicity: at 115 µM (top of the series) unless noted; series mostly up to 115 µM
Summary of the method: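 Cells seeded first (HEK 293, 250 cells/well), then compound added by pintool. Incubation ran 48 or 72 hr at 37 degree Celsius. CellTiter-Glo was added and luminescence imaged after 10 min at room temperature.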
% is set by controls: 0 for no effect and ±100 for the full control effect; potency is the fitted concentration of half-maximal effect; tags give direction and shape of the fitted curve.

Compound	outcome	Potency	activity change, negative = cytotoxicity
CS(=O)(=O)NC[C@H]1O[C@@H](CO)[C@@H](O)[C@H]1N1CCc2ccccc2C1	inactive [at 172 µM]	–	–
Cc1ccc(Cn2c(C3CCN(C(=O)c4ccc5c(c4)OCO5)CC3)n[nH]c2=O)cc1	–	inconclusive: 79.4 µM [inhibitor, single point]	–
Cn1nccc1C(=O)N1CCC(F)(c2nc(-c3ccccc3)no2)CC1	–	inconclusive: 31.6 µM [inhibitor, partial curve, poor fit]	–
CC(C)=CCn1c(-c2ccccc2Cl)cn2cc(C(=O)NCCCO)nc2c1=O	–	inconclusive: 89.1 µM [inhibitor, partial curve, poor fit]	–
O=c1[nH]c(C2CCN([S+](=O)([O-])c3cccc(C(F)(F)F)c3)CC2)nn1-c1ccccn1	–	inconclusive: 79.4 µM [inhibitor, single point]	–
COCCc1noc([C@@H]2CN(Cc3ccc(C(C)C)cc3)C[C@H]2CO)n1	–	active: 39.8 µM	–
N#Cc1cccc(NC(=O)CN2C(=O)NC(c3ccc(Cl)cc3)C3=C2COC3=O)c1 (stereo unspecified)	–	inconclusive: 39.8 µM [inhibitor, partial curve]	–
O=C(NCc1ccccc1)C1CN(c2ccnc3ccnn23)C1	–	inconclusive: 63.1 µM [inhibitor, full curve]	–
Cc1cncc(C(=O)N2CCOc3c(O)cc(-c4nc5ccccc5s4)cc3C2)c1	–	active: 39.8 µM	–
CC1Oc2ccc(NC(=O)c3ccc(Cl)cc3)cc2CN(Cc2cc(F)cc(F)c2)C1=O (stereo unspecified)	–	active: 20 µM	–
CCN1c2cc(C(=O)NCc3cc(F)ccc3F)ccc2C(=O)N2CCCCC21 (stereo unspecified)	–	inconclusive: 39.8 µM [inhibitor, partial curve, poor fit]	–
COc1cc(=O)n2c(c1C(=O)Nc1cc(C)ccc1F)CCCC2	–	–	inactive: -11.6%
O=C(NC1CC1)C1(CCO)CCN(Cc2ccccc2)C1 (stereo unspecified)	–	–	inactive: 1.72%
CN1c2cc(C(=O)NCc3cccc(Cl)c3)ccc2C(=O)N2CCCCC21 (stereo unspecified)	–	inconclusive: 79.4 µM [inhibitor, partial curve, poor fit]	–
O=C(NCC(=O)N1CCN(Cc2ccccc2)CC1)c1cccc(-c2ccsc2)c1	–	inconclusive: 5.62 µM [inhibitor, full curve, poor fit]	–
CC(C)(C)C(=O)NC1CN(c2ccnc3ccnn23)C1	–	–	inactive: -6.94%
O=C(c1cccc(F)c1)N1CCC(n2cc(-c3nc(-c4ccccc4)no3)nn2)CC1	–	inconclusive: 31.6 µM [inhibitor, partial curve, poor fit]	–
COc1cccc(CNC(=O)N2c3ccccc3CC2c2nc(C(C)C)no2)c1 (stereo unspecified)	–	inconclusive: 70.8 µM [inhibitor, partial curve, poor fit]	–
COCC(=O)NCCNC(=O)c1cccc(-c2ccc(SC)cc2)c1	–	inconclusive: 44.7 µM [inhibitor, partial curve, poor fit]	–
CCCNC(=O)N(C1CCOCC1)C1CCN(S(=O)(=O)c2ccc(F)cc2)CC1	–	–	inactive: 14.9%
Cc1cccc(OCCc2noc(C3CCN(C(=O)c4cc(C)nn4C)C3)n2)c1 (stereo unspecified)	–	inconclusive: 50.1 µM [inhibitor, partial curve, poor fit]	–

Compound	outcome	Potency	activity change, negative = cytotoxicity
O=C(Nc1ccccc1)[C@@H]1C[C@H](c2ccc(F)cc2)N([S+](=O)([O-])C2CC2)C1	–	inconclusive: 112 µM [inhibitor, partial curve, poor fit]	–
COc1ccc(-c2nc(C)nc3c2CCN(C(=O)c2ccc(C(F)(F)F)cc2)CC3)cc1	–	inconclusive: 63.1 µM [inhibitor, partial curve, poor fit]	–
O=C(O)C(Cc1ccco1)n1cc(-c2nccs2)nn1 (stereo unspecified)	–	–	inactive: -0.114%
CC1=C[C@@H](CNC(=O)C2CC2)[C@H](C(C)C)C[C@H]1Cc1nnc(-c2ccccc2F)o1	–	active: 63.1 µM	–
COc1ccc(CNC(=O)CCC2CCN(S(=O)(=O)c3ccccc3)CC2)cc1OC	–	inconclusive: 50.1 µM [inhibitor, single point]	–
Cc1ccccc1C(CNC(=O)c1cc(-c2ccc(F)cc2)n[nH]1)N(C)C (stereo unspecified)	–	inconclusive: 63.1 µM [inhibitor, partial curve, poor fit]	–
CC(=O)N1CCN(C(=O)c2cc(-c3cccc(F)c3)nc3c2cnn3C)CC1	–	–	inactive: 2.75%
O=C(N[C@H]1CO[C@H]2[C@@H]1OC[C@@H]2n1nnnc1Oc1ccc(-n2ccnc2)cc1)c1ccc(C(F)(F)F)cc1	–	active: 35.5 µM	–
Cc1noc(C)c1[S+](=O)([O-])N1CCCC(C(=O)N2CCC(c3nc4ncccc4[nH]3)C2)C1 (stereo unspecified)	–	–	inactive: 0.435%
CC(=O)N1CCC2(CC1)CN(C(=O)Cc1cccc(Cl)c1)CCO2	–	–	inactive: 0.172%
O=C(Cn1cccc1-c1nc(-c2ccccc2)no1)Nc1cccc(F)c1	–	–	inactive: 5.84%
c1cncc(-c2ccnc(NCCCn3nccc3C3CC3)n2)c1	–	inconclusive: 50.1 µM [inhibitor, partial curve, poor fit]	–
O=C(Cn1nc2n(c1=O)CCCCC2)N1CCc2ccccc21	–	–	inactive: 12.5%
CC1(c2ccccc2)CCCN(C(=O)c2cc(-c3ccncc3)n[nH]2)C1 (stereo unspecified)	–	inconclusive: 56.2 µM [inhibitor, partial curve, poor fit]	–
O=C(Nc1ccc2n(c1=O)C[C@H]1C[C@@H]2CN(C(=O)c2ccc(-c3ccccc3)cc2)C1)c1ccco1	–	inconclusive: 63.1 µM [inhibitor, partial curve, poor fit]	–
O=C(NCc1cccc(C(F)(F)F)c1)C1(CCO)CCN(c2ncccn2)C1 (stereo unspecified)	inactive	–	–
O=C(c1ccsc1)N1CCN(c2cc(-c3ccc(Cl)cc3)[nH]n2)CC1	–	inconclusive: 50.1 µM [inhibitor, partial curve, poor fit]	–
COCCN1CCCN(C(=O)NCCc2ccccc2)c2ccccc21	–	–	inactive: -27.1%
COc1cccc(-c2ccc(C(=O)N3CCC(C(=O)NC4CCCC4)CC3)cc2)c1	–	inconclusive: 50.1 µM [inhibitor, partial curve, poor fit]	–
COc1ccc(CN2Cc3cc(NC(=O)c4ccccc4)ccc3OC(C)C2=O)cc1 (stereo unspecified)	–	inconclusive: 50.1 µM [inhibitor, partial curve, poor fit]	–
